{"source": "paper PMC13450841", "about": "(PLOS Pathogens, 2026)", "key": {"P. aeruginosa PA103": {"system": "P. aeruginosa PA103", "parameters": "species or system porcine", "settings": "48 hours"}, "[1]": {"system": "HCE-T cells infected with P. aeruginosa PA103"}}, "data": [{"smiles": "COc1c(N2C[C@@H]3CCCN[C@@H]3C2)c(F)cc2c(=O)c(C(=O)O)cn(C3CC3)c12", "note": "[moxifloxacin]", "values": [{"measurement": "Bacterial load (CFU per cornea)", "setting": "P. aeruginosa PA103", "result": "markedly reduced bacterial burden but did not fully eradicate infection"}, {"measurement": "Lysis, ethidium homodimer-positive cells", "setting": "[1]; PA103-infected, 2.5 μM moxifloxacin (sub-MIC), 10 h", "result": 38.8, "unit": "%"}, {"measurement": "Difference in ethidium homodimer uptake compared to untreated controls", "setting": "[1]; human", "result": "< 1", "unit": "%"}]}]}
